Toxic doses and inconclusive results are not listed. For part of its entries the source gives two or more results. This list holds those alone. The source may hold further records. Results that share an entry differ for a reason that is not stated; some may be repeats, others may stem from another dose, organism or construct than stated.
System: C3H/He mice, Gardner lymphosarcoma 6C3HED ip, survival T/C
Experiment: NCI In Vivo Anticancer Drug Screen. Data for tumor model Lymphosarcoma Gardner 6C3HED (intraperitoneal) in C3H/He mice
Settings: endpoint: median survival time, schedule: Q01DX009 (ip), vehicle: sodium bicarbonate, higher = longer survival
Method: The antitumor activity of compounds was measured in mice bearing transplantable tumors. Survival or tumor size were measured and the results are expressed as the measurement made in the treated group (T) divided by the measurement made in the vehicle treated control group (C). The tumor model used in this assay is Lymphosarcoma Gardner 6C3HED (intraperitoneal) in C3H/He mice

How did the T/C (dose: 0.5 mg/kg/injection) turn out when `CN(Cc1cnc2nc(N)nc(N)c2n1)c1ccc(C(=O)N[C@@H](CCC(=O)O)C(=O)O)cc1` was run?
The T/C was 108 % of control and 173 % of control.

And the T/C (dose: 1.0 mg/kg/injection)?
The T/C was 90 % of control, 200 % of control, 307 % of control.

Reference: PubChem BioAssay AID230 (DTP/NCI, 2004)
